Test results from US20040086942A1, “Ige receptor antagonists” (priority 2003, published 2004).
At least one peptide structure holds a part that was inferred or is arguable (an end, a ring closure or a residue). Some results were stated once for a whole list of compounds, not compound by compound. Where a SMILES comes first, the peptide text is derived from it. Bridges are numbered along the chain shown (N, C = ends). [ ]: non-standard residue; d: D form. Pip = O=C(O)[C@@H]1CCCCN1

Experiments:
[1] = 2D NMR structural score versus reference peptide; format: physicochemical; set-up: key: +++, peptide structurally similar to reference; +, structurally similar to reference but significantly less stable; +/−, peptide has some elements of stable structure, but the conformation differs from the reference structure; −, peptide is predominantly unstructured; *peptide IGE037 (SEQ ID NO:128) was initially unstructured (monomeric form), but became structured after spontaneous dimer formation; conditions: reference IGE134
Protocol: Peptides were evaluated by 2D NMR spectroscopy to assess the effect of substitutions on the three-dimensional structure of the peptide analog. All peptides with a structural score indicated in Table 5 were analyzed by 2D NMR spectroscopy; backbone ^1H resonances were assigned and ^3JHN-Hα coupling constants were measured and compared to the reference peptide (IGE063, SEQ ID NO:49; see Example 5). Peptides are defined to be of similar structure to the reference peptide provided chemical shifts, coupling constants, and NOEs are consistent with that structure.
A structural score was assigned to peptides analyzed by 2D NMR spectroscopy. For each of these peptides, backbone ^1H resonances have been assigned, and the ^3JHN-Ha coupling constants have been measured and compared to the reference peptide (i.e., IGE134 (SEQ ID NOS:155, 171)). Peptides are defined to be of similar structure to the reference peptide provided. chemical shifts, coupling constants, and NOEs are consistent with that structure.

[2] = biological target: T1, alpha subunit of the human FcεRI receptor (Homo sapiens, UniProt P12319); test: cell-based 125I-IgE binding inhibition assay on CHO FcεRI+ cells
T1 construct: expressed in transfected cells; host or cells: Chinese hamster ovary (CHO FcεRI+) cells
T1 sequence (P12319 26-257): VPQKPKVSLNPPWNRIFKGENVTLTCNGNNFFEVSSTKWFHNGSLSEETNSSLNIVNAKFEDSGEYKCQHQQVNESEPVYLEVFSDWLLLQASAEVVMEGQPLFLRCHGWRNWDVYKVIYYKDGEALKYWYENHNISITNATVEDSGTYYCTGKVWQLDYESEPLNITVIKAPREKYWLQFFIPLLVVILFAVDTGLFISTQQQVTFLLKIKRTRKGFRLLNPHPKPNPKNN
Protocol: . The following day the cells were rinsed three times with PBS and then once with F12/DMEM. Peptide stocks were reconstituted in 100 mM Hepes buffered water, pH 7.2, at a concentration of 5 mg/mL. Working concentrations of the peptide were diluted in assay buffer (see below). 75 ul, of a desired concentration of peptide was added to the top row of a separate 96 well microtiter plate and serially diluted 1:3 in 50 uL of the assay buffer (F12/DMEM, 1% BSA, 0.05% NaN3 and […] Hepes pH 7.2). Starting concentrations ranged from 50-500 uM. Next, 50 uL of the diluted peptide was transferred to the 96 microtiter well plate containing a monolayer of CHO FcεRI+ cells. After a 1 hour incubation at room temperature, 50 uL of ^125I-IgE (1.5 nM) was added to each well and incubated for an additional 45-60 minutes at 4° C. followed by 5 washes with 200 uL of assay buffer. Cells were solubilized with 200 uL of 1 N NaOH and transferred to a 96 microtiter tube for counting in a gamma counter to determine counts bound. The data were plotted using KaleidaGraph 3.0 and fitted using 4-parameter fits. IC50 values were determined for each peptide.
Six peptides based on selected clones from library #516 were synthesized and assayed for the ability to inhibit the binding of ^125I-IgE to a Chinese hamster ovary cell line expressing the alpha subunit of the IgE high affinity receptor, FcεRI. […]

Row | SMILES | Structure Score [1] | fold difference in activity relative to comparator peptide ([2]; comparator (parent/control peptide) as named in the sentence) | IC50 ([2]; read-out: Inhibition activity: C+hd 50 +l (uM) ± s.d., IgE-inhibition activity of synthetic peptides)
1 | CC(C)C[C@H](NC(=O)[C@H](C)N)C(=O)N[C@H]1CSSC[C@@H](C(=O)N[C@@H](Cc2ccc(O)cc2)C(=O)N[C@H](C(N)=O)C(C)C)NC(=O)[C@H](C(C)C)NC(=O)[C@H](CC(=O)O)NC(=O)[C@@H]2CCCN2C(=O)[C@@H]2CSSC[C@H](NC(=O)[C@H](C(C)C)NC(=O)[C@H](C)NC(=O)[C@@H]3CCCN3C1=O)C(=O)N[C@@H](Cc1ccc(O)cc1)C(=O)N[C@@H](C(C)C)C(=O)NCC(=O)NCC(=O)N[C@@H](CCCCN)C(=O)N[C@@H](C)C(=O)N[C@@H](CC(C)C)C(=O)N2 [IGE083] (H-ALCPAVCYVGGKALCPDVCYV-NH2; disulfide 3-19, 7-15; N-terminus assumed) | +++ | – | –
2 | CC[C@H](C)[C@H](N)C(=O)N[C@H](C(=O)N[C@H]1CSSC[C@@H](C(=O)N[C@@H](Cc2ccc(O)cc2)C(=O)N[C@H](C(N)=O)C(C)C)NC(=O)[C@H](C(C)C)NC(=O)[C@H](CC(=O)O)NC(=O)[C@@H]2CCCN2C(=O)[C@@H]2CSSC[C@H](NC(=O)[C@H](CC(C)C)NC(=O)[C@H](CCCNC(=N)N)NC(=O)[C@@H]3CCCN3C1=O)C(=O)N[C@@H](Cc1ccc(O)cc1)C(=O)N[C@@H](C(C)C)C(=O)NCC(=O)NCC(=O)N[C@@H](CCCCN)C(=O)N[C@@H](C)C(=O)N[C@@H](CC(C)C)C(=O)N2)C(C)C [IGE120] (H-IVCPRLCYVGGKALCPDVCYV-NH2; disulfide 3-19, 7-15 (inferred); N-terminus assumed) | +++ | – | –
3 | CC(C)C[C@@H]1NC(=O)[C@H](C)NC(=O)[C@H](CCCCN)NC(=O)CNC(=O)CNC(=O)[C@H](C(C)C)NC(=O)[C@H](Cc2ccc(O)cc2)NC(=O)[C@@H]2CSSC[C@H](NC1=O)C(=O)N1CCC[C@H]1C(=O)N[C@@H](CC(=O)O)C(=O)N[C@@H](C(C)C)C(=O)N[C@H](C(=O)N[C@@H](Cc1ccc(O)cc1)C(=O)N[C@H](C(N)=O)C(C)C)CSSC[C@H](NC(=O)[C@H](CCC(N)=O)NC(=O)[C@@H](N)C(C)C)C(=O)N1CCC[C@H]1C(=O)N[C@@H](Cc1c[nH]cn1)C(=O)N[C@@H](Cc1ccccc1)C(=O)N2 [IGE122] (H-VQCPHFCYVGGKALCPDVCYV-NH2; disulfide 3-19, 7-15 (inferred); N-terminus assumed) | +++ | – | –
4 | CC[C@H](C)[C@H](N)C(=O)N[C@H](C(=O)N[C@H]1CSSC[C@@H](C(=O)N[C@@H](Cc2ccc(O)cc2)C(=O)N[C@H](C(N)=O)C(C)C)NC(=O)[C@H](C(C)C)NC(=O)[C@H](CC(=O)O)NC(=O)[C@@H]2CCCN2C(=O)[C@@H]2CSSC[C@H](NC(=O)[C@H](CC(C)C)NC(=O)[C@H](CCCNC(=N)N)NC(=O)[C@H](C)NC1=O)C(=O)N[C@@H](Cc1ccc(O)cc1)C(=O)N[C@@H](C(C)C)C(=O)NCC(=O)NCC(=O)N[C@@H](CCCCN)C(=O)N[C@@H](C)C(=O)N[C@@H](CC(C)C)C(=O)N2)C(C)C [IGE127] (H-IVCARLCYVGGKALCPDVCYV-NH2; disulfide 3-19, 7-15 (inferred); N-terminus assumed) | +++ | – | –
5 | CC(C)C[C@@H]1NC(=O)[C@H](CCC(=O)O)NC(=O)[C@H](C)NC(=O)CNC(=O)CNC(=O)[C@H](Cc2ccccc2)NC(=O)[C@H](Cc2ccc(O)cc2)NC(=O)[C@@H]2CSSC[C@H](NC1=O)C(=O)N1CCC[C@H]1C(=O)N[C@@H](CC(=O)O)C(=O)N[C@@H](C(C)C)C(=O)N[C@H](C(=O)N[C@@H](Cc1ccc(O)cc1)C(=O)N[C@H](C(N)=O)C(C)C)CSSC[C@H](NC(=O)[C@H](CCC(N)=O)NC(=O)[C@@H](N)C(C)C)C(=O)N1CCC[C@H]1C(=O)N[C@@H](Cc1c[nH]cn1)C(=O)N[C@@H](Cc1ccccc1)C(=O)N2 [IGE135] (H-VQCPHFCYFGGAELCPDVCYV-NH2; disulfide 3-19, 7-15) | +++ | – | –
6 | CC(C)C[C@@H]1NC(=O)[C@H](C)NC(=O)[C@H](CCC(=O)O)NC(=O)CNC(=O)[C@H](C(C)C)NC(=O)[C@H](Cc2ccc(O)cc2)NC(=O)[C@@H]2CSSC[C@H](NC1=O)C(=O)N1CCC[C@H]1C(=O)N[C@@H](CC(=O)O)C(=O)N[C@@H](C(C)C)C(=O)N[C@H](C(=O)N[C@@H](Cc1ccc(O)cc1)C(=O)N[C@H](C(N)=O)C(C)C)CSSC[C@H](NC(=O)[C@H](CCC(N)=O)NC(=O)[C@@H](N)C(C)C)C(=O)N1CCC[C@H]1C(=O)N[C@@H](Cc1c[nH]cn1)C(=O)N[C@@H](Cc1ccccc1)C(=O)N2 [IGE146] (H-VQCPHFCYVGEALCPDVCYV-NH2; disulfide 3-18, 7-14 (inferred); N-terminus assumed) | +++ | – | –
7 | CC(C)C[C@@H]1NC(=O)[C@H](C)NC(=O)[C@H](CCCCN)NC(=O)CNC(=O)CNC(=O)[C@H](C(C)C)NC(=O)[C@H](Cc2ccc(O)cc2)NC(=O)[C@@H]2CSSC[C@H](NC1=O)C(=O)N1CCC[C@H]1C(=O)N[C@@H](CC(=O)O)C(=O)N[C@@H](C(C)C)C(=O)N[C@H](C(=O)N[C@@H](CC(=O)O)C(=O)N[C@H](C(N)=O)C(C)C)CSSC[C@H](NC(=O)[C@H](CCC(N)=O)NC(=O)[C@@H](N)C(C)C)C(=O)N1CCC[C@H]1C(=O)N[C@@H](Cc1c[nH]cn1)C(=O)N[C@@H](Cc1ccccc1)C(=O)N2 [IGE150] (H-VQCPHFCYVGGKALCPDVCDV-NH2; disulfide 3-19, 7-15; N-terminus assumed) | + | – | –
8 | CC(C)C[C@@H]1NC(=O)[C@H](CCC(=O)O)NC(=O)[C@H](C)NC(=O)CNC(=O)CNC(=O)[C@H](Cc2ccccc2)NC(=O)[C@H](Cc2ccc(O)cc2)NC(=O)[C@@H]2CSSC[C@H](NC1=O)C(=O)N1CCCC[C@H]1C(=O)N[C@@H](CC(=O)O)C(=O)N[C@@H](C(C)C)C(=O)N[C@H](C(=O)N[C@@H](Cc1ccc(O)cc1)C(=O)N[C@H](C(N)=O)C(C)C)CSSC[C@H](NC(=O)[C@H](CCC(N)=O)NC(=O)[C@@H](N)C(C)C)C(=O)N1CCC[C@H]1C(=O)N[C@@H](Cc1c[nH]cn1)C(=O)N[C@@H](Cc1ccccc1)C(=O)N2 [IGE161-2, VQCPHFCYFGGAELC(Pip)DVCYV-nh2] (H-VQCPHFCYFGGAELC[Pip]DVCYV-NH2; disulfide 3-19, 7-15) | +++ | – | –
9 | CC(=O)N[C@H]1CSSC[C@@H](C(=O)N[C@@H](Cc2ccc(O)cc2)C(N)=O)NC(=O)[C@H](C(C)C)NC(=O)[C@H](CC(=O)O)NC(=O)[C@@H]2CCCN2C(=O)[C@@H]2CSSC[C@H](NC(=O)[C@H](Cc3ccccc3)NC(=O)[C@H](Cc3c[nH]cn3)NC(=O)[C@@H]3CCCN3C1=O)C(=O)N[C@@H](Cc1ccc(O)cc1)C(=O)N[C@@H](Cc1ccccc1)C(=O)NCC(=O)N[C@@H](C)C(=O)N[C@@H](CCC(=O)O)C(=O)N[C@@H](CC(C)C)C(=O)N2 [IGE171, AcCPHFCYFGAELCPDVCY-nh2] (Ac-CPHFCYFGAELCPDVCY-NH2; disulfide 1-16, 5-12) | – | ≤ 2 fold | 0.29 ± 0.21 µM
